Test results as given in the supplement of paper PMC8183993.
Values joined by “and” are separate entries in the source; they are usually repeats but may differ in a detail not shown here. Identical values can stand only once. Counter-ions that a name gives are not always drawn. ± gives the standard deviation of the averaged measurements. The full ranking holds about 3,200 compounds; the median of “nuclei count (viability) relative to DMSO” is about 99, and the lowest 2% start at about 16. The list shows a part of the results.

What follows are compounds tested on U2OS (assay: nuclei count (viability) relative to DMSO (% of DMSO); higher = more viable cells). Conditions: 10 µM; 24 h.
Experimental: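 Primary image-based screen in U2OS cells: compounds at 10 uM for 24 h, then a 1 h o-propargyl-puromycin (OPP) pulse, click labelling, and high-throughput microscopy. Mean cytoplasmic OPP intensity and nuclei count were normalised to DMSO wells within each plate (DMSO = 100) and averaged over triplicate plates.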
Work on `C[C@@]12N[C@@H](Cc3ccccc31)c1ccccc12` [(-)-MK 801 hydrogen maleate] yielded a nuclei count of 106. `C[C@@]12N[C@@H](Cc3ccccc31)c1ccccc12` [(-)-MK 801 maleate] gave a nuclei count of 107. `C[N+]12CCC(CC1)C(OC(=O)C(O)(c1ccccc1)c1ccccc1)C2` (stereo not drawn) [Clidinium bromide] gave a nuclei count of 97.1. In the case of `CO[C@]12C[C@@H](COC(=O)c3cncc(Br)c3)CN(C)[C@@H]1Cc1cn(C)c3cccc2c13` [Nicergoline], the nuclei count is reported as 88.9 ± 20. With `CC(=O)OCC1=C(C(=O)O)N2C(=O)[C@@H](N)[C@H]2SC1` [7-Aminocephalosporanic acid] the nuclei count was 78.3. `CC(=O)OCC1=C(C(=O)O)N2C(=O)[C@@H](N)[C@H]2SC1` [Cephalosporanic acid, 7-amino] showed a nuclei count of 101. `O=C1C(=O)c2ccccc2-c2ccccc21` [9,10-Phenanthrenequinone] showed a nuclei count of 21.7. `CC(=O)OCC(=O)[C@H]1CC[C@H]2[C@@H]3CC[C@H]4C[C@H](O)CC[C@]4(C)[C@H]3C(=O)C[C@]12C` [Alfadolone acetate] was tested, and the nuclei count was 100. Work on `NCc1cc(O)no1` [Muscimol] yielded a nuclei count of 104. With `NC(=O)CN1CCCC1=O` [Piracetam] the nuclei count was 105. In the case of `COc1cc2c(cc1OC)C(C)NCC2` (stereo not drawn), the nuclei count is reported as 94.4. `C=C(C)[C@@H]1[C@H]2OC(=O)[C@@H]1[C@]1(O)C[C@H]3O[C@]34C(=O)O[C@H]2[C@]14C` [Picrotoxinin] gave a nuclei count of 104. `CC(C)c1c(CN(C)C(C)Cc2ccccc2)n(C)n(-c2ccccc2)c1=O` (stereo not drawn) [Famprofazone] was tested, and the nuclei count was 102. For `O=P1(NCCCl)OCCCN1CCCl` (stereo not drawn) [Ifosfamide], the nuclei count was 106. For `COc1ccc(C(=O)c2c(C)n(CCN3CCOCC3)c3cc(I)ccc23)cc1`, the nuclei count was 80. `CCCCC/C=C\C/C=C\C/C=C\C/C=C\CCCC(=O)NCCO` [Anandamide] was tested, and the nuclei count was 103. Work on `Oc1ccc2c3c1O[C@H]1c4oc5ccccc5c4C[C@@]4(O)[C@@H](C2)N(CC2CC2)CC[C@]314` [Naltriben mesylate] yielded a nuclei count of 97.6. Work on `COc1cc2c(cc1OC)C1CC(=O)C(CC(C)C)CN1CC2` (stereo not drawn) [Tetrabenazine] yielded a nuclei count of 105. `CCCCC/C=C\C/C=C\C/C=C\C/C=C\CCCC(=O)Nc1ccc(O)cc1` was tested, and the nuclei count was 97. `CCNC(=O)[C@H]1O[C@@H](n2cnc3c(N)ncnc32)[C@H](O)[C@@H]1O` was tested, and the nuclei count was 99.1. In the case of `Cc1cccc(C)c1NC1=NCCCS1` [Xylazine], the nuclei count is reported as 108. In the case of `O=C(Oc1ccc([N+](=O)[O-])cc1)N1CCC(C(O)(c2ccc3c(c2)OCO3)c2ccc3c(c2)OCO3)CC1`, the nuclei count is reported as 111. With `CCN(CC)CCO[C@H]1CC[C@@]2(C)C(=CC[C@@H]3[C@@H]2CC[C@]2(C)C(=O)CC[C@@H]32)C1` the nuclei count was 97. With `CN1C(=O)COc2c(C(=O)NC3CN4CCC3CC4)cc(Cl)cc21` (stereo not drawn) the nuclei count was 96.5. For `C[C@H](N)Cn1ccc2cc(F)c(Cl)cc21` [Ro 60-0175 fumarate], the nuclei count was 103. In the case of `CC[C@@H]1/C=C/C=C/C[C@H](C)[C@H](O)[C@](C)(O)C(=O)[C@H](C)[C@@H](O)[C@H](C)C(=O)[C@H](C)[C@@H](O)[C@H](C)/C=C/C(=O)O[C@H]2[C@@H](C)[C@@H](CC1)O[C@@]1(CC[C@@H](C)[C@@H](C[C@H](C)O)O1)[C@@H]2C` [Oligomycin A], the nuclei count is reported as 83.4. For `CC(C)(C)[C@]1(O)CC2OC(=O)CC23C(=O)OC2OC(=O)[C@H](O)C231` (stereo partly drawn) [Bilobalide], the nuclei count was 112. `Cc1[nH]c2ccc(Cl)cc2c1C1=CCNCC1` was tested, and the nuclei count was 96.9. `Cc1cc(SCc2sc(-c3ccc(C(F)(F)F)c(F)c3)nc2C)ccc1OCC(=O)O` gave a nuclei count of 98.5. For `NC(=O)C[S+]([O-])C(c1ccccc1)c1ccccc1` (stereo not drawn) [Modafinil], the nuclei count was 110. `CC(=O)NC1CCSC1=O` (racemic) [N-Acetyl-DL-homocysteine Thiolactone] was tested, and the nuclei count was 102. In the case of `CC(Cc1ccccc1)NCCC(c1ccccc1)c1ccccc1` (stereo not drawn) [Prenylamine lactate], the nuclei count is reported as 100. With `C[C@]12CC[C@H](O)C[C@H]1CC[C@@H]1[C@@H]2C[C@@H](O)[C@]2(C)[C@@H](C3=CC(=O)OC3)CC[C@]12O` [Digoxigenin] the nuclei count was 26.9. `CN(C(=O)Cc1ccccc1)C(CN1CCCC1)c1ccccc1` (stereo not drawn) [N-MPPP Hydrochloride] showed a nuclei count of 87.9. `O=C(O[C@H]1C[N+]2(CCCOc3ccccc3)CCC1CC2)C(O)(c1cccs1)c1cccs1` [Aclidinium Bromide] gave a nuclei count of 102. For `Clc1ccccc1C(c1ccccc1)(c1ccccc1)n1cccn1`, the nuclei count was 102. `Clc1ccc(C(OCCN2CCCCC2)c2ccccc2)cc1` (stereo not drawn) [Cloperastine hydrochloride] was tested, and the nuclei count was 102. For `CN1CCN(C(=O)OC2c3nccnc3C(=O)N2c2ccc(Cl)cn2)CC1` (stereo not drawn) [Zopiclone], the nuclei count was 105. With `CN[C@@H]1C[C@H]2O[C@@](C)([C@@H]1OC)n1c3ccccc3c3c4c(c5c6ccccc6n2c5c31)C(=O)NC4` [Staurosporine] the nuclei count was 10.1. Compound `CN1[C@@H]2CC[C@H]1C[C@@H](OC1c3ccccc3CCc3ccccc31)C2` [Deptropine citrate] has a nuclei count of 97.9. Work on `C[C@@H]1O[C@@H](O[C@H]2C[C@@H](O)[C@]3(CO)[C@H]4[C@H](O)C[C@]5(C)[C@@H](C6=CC(=O)OC6)CC[C@]5(O)[C@@H]4CC[C@]3(O)C2)[C@H](O)[C@H](O)[C@H]1O` [Ouabain] yielded a nuclei count of 19.9 ± 3.4. With `NCC(O)c1ccc(O)cc1` (racemic) [(+,-)-Octopamine hydrochloride] the nuclei count was 109. Work on `Cc1nc(N)sc1CCN` [Amthamine dihydrobromide] yielded a nuclei count of 102. In the case of `C[N+]1(C)[C@@H]2C[C@@H](OC(=O)[C@H](CO)c3ccccc3)C[C@H]1[C@@H]1O[C@@H]12` [Methscopolamine (Pamine)], the nuclei count is reported as 104. In the case of `C[C@]12CC[C@H](O)C[C@@H]1CC[C@@H]1[C@@H]2CC[C@]2(C)C(=O)CC[C@@H]12` [Epiandrosterone], the nuclei count is reported as 102. For `C[C@]12CC[C@H](O)C[C@@H]1CC[C@@H]1[C@@H]2CC[C@]2(C)C(=O)CC[C@@H]12`, the nuclei count was 98.6. Compound `Cn1cc(C(=O)C(=O)N[C@H]2CN3CCC2CC3)c2ccccc21` has a nuclei count of 102. `CCn1cc(C(=O)O)c(=O)c2cc3c(cc21)OCO3` [Oxolinic acid] gave a nuclei count of 97.5. With `N[C@@]1(C(=O)O)CC[C@@H](C(=O)O)C1` the nuclei count was 93.1. For `CN(C)C(=O)Oc1cc(OC(=O)N(C)C)cc(C(O)CNC(C)(C)C)c1` (stereo not drawn) [Bambuterol hydrochloride], the nuclei count was 95.4. Work on `CCN(C)C(=O)Oc1cccc([C@H](C)N(C)C)c1` [Rivastigmine] yielded a nuclei count of 110. In the case of `CC[C@@]1([C@@H]2O[C@@H]([C@H]3O[C@@](O)(CO)[C@H](C)C[C@@H]3C)C[C@@H]2C)CC[C@H]([C@]2(C)CC[C@]3(C[C@H](O)[C@@H](C)[C@@H]([C@@H](C)[C@@H](OC)[C@H](C)C(=O)O)O3)O2)O1` [Monensin sodium salt], the nuclei count is reported as 101. Compound `CC[C@@]1([C@@H]2O[C@@H]([C@H]3O[C@@](O)(CO)[C@H](C)C[C@@H]3C)C[C@@H]2C)CC[C@H]([C@]2(C)CC[C@]3(C[C@H](O)[C@@H](C)[C@@H]([C@@H](C)[C@@H](OC)[C@H](C)C(=O)O)O3)O2)O1` [Monensin sodium salt (Coban)] has a nuclei count of 89.7. In the case of `CCC1(c2ccc(N)cc2)CCC(=O)NC1=O` (stereo not drawn) [Glutethimide, para-amino], the nuclei count is reported as 99.8. Work on `C=C(C)[C@H]1O[C@H]2CC[C@@]3(C)[C@@](O)(CC[C@H]4[C@@H]5OC(C)(C)[C@H]6C[C@@H]7C(=C)Cc8c(Cl)cc9[nH]c(c5c9c8[C@@]76O)[C@@]43C)[C@@]23O[C@H]3[C@H]1O` [Penitrem A] yielded a nuclei count of 62 ± 25. `CCN1C[C@]2(COC(=O)c3ccccc3N3C(=O)C[C@H](C)C3=O)CC[C@H](OC)[C@@]34[C@@H]5C[C@H]6[C@H](OC)[C@@H]5[C@](O)(C[C@@H]6OC)[C@](O)([C@@H](OC)[C@H]23)[C@@H]14` [Methyllycaconitine citrate] gave a nuclei count of 109. With `CNc1ccc2oc(C[C@H]3O[C@@]4(CC[C@H]3C)O[C@H]([C@H](C)C(=O)c3ccc[nH]3)[C@H](C)C[C@H]4C)nc2c1C(=O)O` the nuclei count was 34.1 and 33.8. `O=C(O)c1ccc2[nH]cc(CCCCN3CC=C(c4ccccc4)CC3)c2c1` [Carmoxirole hydrochloride] was tested, and the nuclei count was 91.5. Compound `c1ccc2c(c1)[I+]c1ccccc1-2` [Diphenyleneiodonium chloride] has a nuclei count of 45.4. For `CCN1C[C@]2(COC)[C@H](O)C[C@H](OC)[C@@]34[C@@H]5C[C@@]6(O)[C@H](OC(=O)c7ccccc7)[C@@H]5[C@@](OC(C)=O)([C@@H]([C@H](OC)[C@H]23)[C@@H]14)[C@@H](O)[C@@H]6OC` [Aconitine], the nuclei count was 86.9. Compound `Cc1ccc(C[N+](C)(C)C)o1` [5-Methylfurmethiodide] has a nuclei count of 91.6. `N#CC(C#N)=Cc1ccc(O)cc1` [Tyrphostin 8] was tested, and the nuclei count was 102. Compound `CC(C)(Cc1c[nH]c2ccc(Cl)cc12)NCCOc1ccccc1OCC1CC1` has a nuclei count of 11.3. For `CCCN(CCC)C1CCc2cccc(O)c2C1` (stereo not drawn) [8-Hydroxy-DPAT hydrobromide], the nuclei count was 106. Work on `COC(=O)/C=C/C(=O)N[C@@H]1CC[C@@]2(O)[C@H]3Cc4ccc(O)c5c4[C@@]2(CCN3CC2CC2)[C@H]1O5` [_-Funaltrexamine hydrochloride] yielded a nuclei count of 85.7. `O[C@@H]1CCCC[C@H]1N1CCC(c2ccccc2)CC1` [L(-)-vesamicol hydrochloride] showed a nuclei count of 105. In the case of `O=C1CCCN1CC#CCN1CCCC1` [Oxotremorine sesquifumarate], the nuclei count is reported as 104. `CCC(=O)CCCCC[C@@H]1NC(=O)[C@H]2CCCCN2C(=O)[C@H]([C@@H](C)CC)NC(=O)[C@H](Cc2cn(OC)c3ccccc23)NC1=O` [Apicidin] showed a nuclei count of 54.1 ± 37.
